The text below walks through data of the supplement of paper PMC11417369.

± gives the standard deviation of the averaged measurements. The list shows a part of the results.

The subject of the assay is PfAP2-LT AP2 domain (GST-tagged). The assay is described as follows: gcPBM binding intensity (ln(normalized median fluorescence intensity)); higher = stronger DNA binding. In outline: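 After 1 h on an Agilent 4 × 180k array of primer-extended double-stranded 36-bp intergenic genomic probes and negative controls, bound GST-tagged P. falciparum DNA-binding domains were detected with Alexa488 anti-GST antibody and scanned at 488 nm. The domains had been expressed in E. coli, and binding took place in 1× PBS with 1% milk, 0.2 mg/ml BSA, 0.5% salmon testes DNA and 0.03% Triton X-100. Binding intensity is the highest Masliner-normalised natural-log median intensity across replicate spots of either probe orientation.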
With “AAAAAAAATTTCTTCTGTACGCATAAATTTTTATTA [XGTACX_site8721]”, the “gcPBM binding intensity (ln)” value came out at 8.37 ± 0.43. Take “TATTTAATTTTTAAATGTACATATAAAATAATATAT [XGTACX_site2422]”: the “gcPBM binding intensity (ln)” value came out at 8.24 ± 0.41. The figure for “TTTTTCAGAAAAGAAACACACATATATATATTTATA [CACACA_site2372]” is 8.56 ± 0.43. Turning to “CATATAAAATAATTCACACAAATATACAAATACCCA [CACACA_site5340]”, the “gcPBM binding intensity (ln)” value was 9.04 ± 0.36. With “CTTTATAAAATAAGAGTGCGTTATATTGAATTGTAT [GTGCAC_site9390]”, the “gcPBM binding intensity (ln)” value was determined as 8.62 ± 0.39. For the sequence “ATATAAGATTTAAGAAGTACAATTATACAGTAGATC [XGTACX_site7501]”, the “gcPBM binding intensity (ln)” value turned out to be 8.85 ± 0.47.

“ATATAACATAGACACACACACATATAAATATATTAT [CACACA_site7865]”: the “gcPBM binding intensity (ln)” value is 9.67 ± 0.14. With “TTTTTATAACGTAATAAATAAAACGTCTATACTATA [XGTACX_negctrl_site176]” the figure was 8.61 ± 0.45; with “AAAAATATAATATAATGTACACAAAAAAAAAAATTC [XGTACX_site3657]”, 8.83 ± 0.44. On to “AATTAGACATAATATACACACATATATTATAGATAT [CACACA_site7297]”, for which the “gcPBM binding intensity (ln)” value stood at 8.99 ± 0.36. As to “TAAAGATATTATTTTTGTACATATTGATATAATGAA [XGTACX_site6571]”, the “gcPBM binding intensity (ln)” value was determined as 8.41 ± 0.4. In the case of “TATATTATTATAATTTGTACATATCTAATTATATAT [XGTACX_site5342]”, the “gcPBM binding intensity (ln)” value amounted to 8.78 ± 0.49. For “GAATAAATTAAAAATGCACACTTTGATGGGTACATT [CACACA_site5220]”, the “gcPBM binding intensity (ln)” value amounted to 8.72 ± 0.42. “ACGTTTTATAATTAATGTACAAATATTAAAATTGCA [XGTACX_site7869]”: the “gcPBM binding intensity (ln)” value is 8.57 ± 0.35. Turning to “TATGAATGGTTAAGTACACACATATTAAGATATGTA [CACACA_site5852]”, the “gcPBM binding intensity (ln)” value turned out to be 8.86 ± 0.45. “TCATATATTTATGTATGTACATATATATATAGATTA [XGTACX_site380]”: the “gcPBM binding intensity (ln)” value was 8.59 ± 0.3. In the case of “TTATTTATTTTAAATTCACACATCGTGCTATTATAT [CACACA_site5003]”, the “gcPBM binding intensity (ln)” value worked out at 9.04 ± 0.68.

As to “TATATTTGCAGTAATAATAATTATTATAAAAGATAA [XGTACX_negctrl_site547]”, the “gcPBM binding intensity (ln)” value was 8.53 ± 0.54. Turning to “TTACATGTAAAAGGTACACACATTATGTATACAAAT [CACACA_site1117]”, the “gcPBM binding intensity (ln)” value is 9.24 ± 0.4. Turning to “TTTTTTTTTTTTTTTTGTCCGTACTGCTTTGTGTTT [XGTACX_site3687]”, the “gcPBM binding intensity (ln)” value was found to be 8.84 ± 0.52.

With “ATGATAAACATGGATACACACATATAGATTGCATAT [CACACA_site6843]”, the “gcPBM binding intensity (ln)” value was 9.21 ± 0.41.

As for “TTCATCTTAAAATTGGGTACATAACACAAAGTATAA [XGTACX_site1894]”, the “gcPBM binding intensity (ln)” value was determined as 8.45 ± 0.45. With “ATATATATTAACAATACACACGTGTATACCTTATTG [CACACA_site5258]”, the “gcPBM binding intensity (ln)” value was 9.35 ± 0.39. As to “TTATTAAATTCATAAGTGCATTTATGATTAATTTTT [GTGCAC_site9749]”, the “gcPBM binding intensity (ln)” value is 8.55 ± 0.48. With “ATTTCTCTATCGTAATGTACATAAAAAAGAAAAACA [XGTACX_site6374]”, the “gcPBM binding intensity (ln)” value stood at 8.56 ± 0.47. “AAACTTAATATCGGTACACACACAAGATAAGAATTA [CACACA_site8200]”: the “gcPBM binding intensity (ln)” value came to 9.41 ± 0.41. For the sequence “AATACATACAGACACACACACACATATATATATATA [CACACA_site3558]”, the “gcPBM binding intensity (ln)” value amounted to 10.36 ± 0.014. Consider “CACATACACCCATACACACACATATATATTAAGATA [CACACA_site4459]”, for which the “gcPBM binding intensity (ln)” value was 9.57 ± 0.38. On to “CTATAAATATTTTATTGTACACACTTTTTATGAATG [XGTACX_site6711]”, for which the “gcPBM binding intensity (ln)” value was 8.92 ± 0.38. As to “ATATATATATAGTGCACACTTAAGAATATAAAGAGG [CACACA_site1151]”, the “gcPBM binding intensity (ln)” value worked out at 9.12 ± 0.4. With “AAAATTTTTAGTTATACACACAACATAGAAAATATT [CACACA_site328]” the figure was 8.85 ± 0.43.

On to “TTTGATCGATGGATTTAACACACAAAAAAAAAAAAA [CACACA_site9279]”, for which the “gcPBM binding intensity (ln)” value stood at 8.72 ± 0.46. With “CTTAATTTAATGAAATGTACATATAAAAATATTATA [XGTACX_site3303]” the figure was 8.41 ± 0.4; with “GTAAGAAACAGACACACACACATATATATATATATA [CACACA_site794]”, 10.21 ± 0.064; with “GAACAGTTTGTTTAGTGTACTTTTTTTTTTTTTTTT [XGTACX_site8881]”, 8.62 ± 0.34.

Regarding “AATAATTTTATCGGTACACACTGTATGCATAATATT [CACACA_site4364]”, the “gcPBM binding intensity (ln)” value was 9.15 ± 0.38.

Take “CCTATAAATGCATTCACACATATATATTTATATTAT [CACACA_site6086]”: the “gcPBM binding intensity (ln)” value was found to be 8.9 ± 0.35.

For “TCAAAAATAAAGATCACACATATATATATATATATA [CACACA_site4381]”, the “gcPBM binding intensity (ln)” value is 9.8 ± 0.11.

Regarding “ATGTACAAAATAAGCACACACAAAAAAAAAAAAAAT [CACACA_site2998]”, the “gcPBM binding intensity (ln)” value was found to be 9.58 ± 0.48. Turning to “TCTAATTACAAAAACATACACACAAAAAAAAAAAAA [CACACA_site3783]”, the “gcPBM binding intensity (ln)” value was determined as 8.99 ± 0.48. “AAAAAAAAAAAAAAAGCACACACACCGATGTGTATA [CACACA_site8224]”: the “gcPBM binding intensity (ln)” value amounted to 9.94 ± 0.16. Take “TATATATATATACCTTGTACTTACATTCGCATATAA [XGTACX_site2466]”: the “gcPBM binding intensity (ln)” value was determined as 9.39 ± 0.28. Turning to “ACATAAATATATGACACACACACATATTATATATAT [CACACA_site3065]”, the “gcPBM binding intensity (ln)” value came out at 9.76 ± 0.23.

As to “GTATAATTATGTGCACGTACATATTTTATTATATAT [XGTACX_site8586]”, the “gcPBM binding intensity (ln)” value was found to be 9.2 ± 0.39. The figure for “CCATTACCATATAAAACACACAAACATACATACATA [CACACA_site5952]” is 9.14 ± 0.38; for “TATTTATATTTATACACACACACAAAAAAAAAAAAA [CACACA_site6817]” it is 9.33 ± 0.31. On to “TTGTTTTCTTTTTCTTTTCTTTTTCTTTTTTCTTTT [GTGCAC_negctrl_site629]”, for which the “gcPBM binding intensity (ln)” value worked out at 8.61 ± 0.68. For “TATATATATATAAAGACACACATCTATAGAATGTTA [CACACA_site2557]”, the “gcPBM binding intensity (ln)” value turned out to be 8.79 ± 0.32. Regarding “TTTATGACTTGAAAAAGTACACATATATTTATGCAA [XGTACX_site5451]”, the “gcPBM binding intensity (ln)” value was 8.54 ± 0.47. The figure for “AATATAGAAATAAATATATCACATTTGTGTTTAAAC [XGTACX_negctrl_site68]” is 8.61 ± 0.42; for “TACCAAATTTATTCTTGTACATATATATATATATAT [XGTACX_site4832]” it is 9.435 ± 0.064; for “ATATATATTTATAGGTGTACAAAATACTATTTTAGG [XGTACX_site8499]” it is 8.6 ± 0.46. For “AAAAGGAAAAATATCACACATATATATATATATATA [CACACA_site5586]”, the “gcPBM binding intensity (ln)” value was 9.76 ± 0.45. Consider “AATAAGTAACAAAATACACACATATAGGTAATTATA [CACACA_site6949]”, for which the “gcPBM binding intensity (ln)” value came to 9.29 ± 0.43. For “ATTATTATACACAAATGTACATGTGAATTTTTTTTC [XGTACX_site6982]”, the “gcPBM binding intensity (ln)” value was found to be 8.72 ± 0.45. In the case of “ATATGTTCCGAAGGTTGTACACACATAGAAATATAC [XGTACX_site8227]”, the “gcPBM binding intensity (ln)” value came to 9.22 ± 0.32. Consider “AAAATATATACAATATGTACATATATATATATATAT [XGTACX_site1898]”, for which the “gcPBM binding intensity (ln)” value is 9.675 ± 0.092.
